# Test results: PubChem BioAssay AID588591 (National Center for Advancing Translational Sciences (NCATS), 2011)
# The whole screen tested about 390,000 compounds, of which about 4,700 (1.2%) were called active. The shares of active, inactive and inconclusive entries below differ from those in the screen. Calls follow the shape of the dose curve; as a rule, active = well fitted inhibition curve with a large enough effect; inconclusive = small, poorly fitted or top-dose-only effect, or another doubt; inactive = no such curve, though single readings can be large or run the other way. Where the call is inconclusive, the potency comes from a doubtful curve fit.
# Molecular target: DNA polymerase eta (Homo sapiens) (UniProt Q9Y253)
# Chain of UniProt Q9Y253 (Q9Y253 whole entry, looked up): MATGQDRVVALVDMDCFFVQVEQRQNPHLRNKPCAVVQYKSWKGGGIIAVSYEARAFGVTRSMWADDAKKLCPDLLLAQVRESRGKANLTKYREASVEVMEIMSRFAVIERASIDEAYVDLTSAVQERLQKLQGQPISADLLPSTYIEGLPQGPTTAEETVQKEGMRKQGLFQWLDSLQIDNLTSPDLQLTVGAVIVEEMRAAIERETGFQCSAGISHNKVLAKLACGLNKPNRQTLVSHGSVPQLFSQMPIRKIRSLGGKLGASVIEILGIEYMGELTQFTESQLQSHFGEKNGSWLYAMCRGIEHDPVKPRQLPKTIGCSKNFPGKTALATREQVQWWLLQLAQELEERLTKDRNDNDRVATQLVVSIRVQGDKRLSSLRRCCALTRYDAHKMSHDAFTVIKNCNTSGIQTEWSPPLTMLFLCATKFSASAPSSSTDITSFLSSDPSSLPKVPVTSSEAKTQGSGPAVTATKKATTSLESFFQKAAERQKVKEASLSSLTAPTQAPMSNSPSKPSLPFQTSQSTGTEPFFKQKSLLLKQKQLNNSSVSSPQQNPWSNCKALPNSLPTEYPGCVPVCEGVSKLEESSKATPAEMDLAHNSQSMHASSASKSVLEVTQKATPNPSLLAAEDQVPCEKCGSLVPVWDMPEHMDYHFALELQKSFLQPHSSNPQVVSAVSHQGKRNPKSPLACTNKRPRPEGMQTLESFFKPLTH
# Assay: qHTS for Inhibitors of Polymerase Eta
# Details: recombinant Pol eta, fluorescent DNA replication assay; series mostly up to 114 µM; activity change, negative = inhibition: at the top concentration
# In short: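 Pol eta (10 nM) was preincubated with compounds for 15 min at room temperature, after which fluorescent replication substrate (50 nM final) was added to start the reaction. Fluorescence was read kinetically at 0 and 10 min.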
# % is scaled to controls: 0 for no effect and ±100 for the full control effect; potency is read from the fitted curve at half-maximal effect; tags tell the direction and shape of the fitted curve.
Structure (SMILES),"activity change, negative = inhibition",Potency
CCCNC(=O)c1ccccc1NC(=O)c1nsc2ccccc12,inactive: -12.2%,–
Cc1ccnc2nc(C(=O)OCC(=O)c3ccc(NC(=O)CC(C)C)cc3)nn12,–,"inconclusive: 15.8 µM [inhibitor, full curve, poor fit]"
COc1cc(/C=C2\C(=O)ON=C2c2ccccc2)cc(Br)c1O,–,active: 44.7 µM
CCOC(=O)c1ccc(NC(=O)c2ncn3c2C(=O)NC[C@@H]3C)cc1,–,"inconclusive: 56.2 µM [inhibitor, partial curve, poor fit]"
COCCn1c(SC(C)C(=O)NCC2CCCO2)nc2sc3c(c2c1=O)CCC3 (stereo not given),–,"inconclusive: 20 µM [inhibitor, full curve]"
COc1ccc(C2=NN(C(C#N)c3ccc(OC)cc3)C(c3ccccc3)C2)cc1 (stereo not given),–,"inconclusive: 70.8 µM [inhibitor, partial curve, poor fit]"
CC1CCCC(C)N1C(=O)c1cccc2c1-c1ccccc1/C2=N/O (stereo not given),–,"inconclusive: 39.8 µM [inhibitor, single point]"
Cc1cc(=O)oc2cc(OCC(=O)N/N=C/c3ccccc3[N+](=O)[O-])ccc12,–,"inconclusive: 56.2 µM [inhibitor, partial curve, poor fit]"
CCOc1cc(/C=C2/C(=N)N3N=C(C)SC3=NC2=O)ccc1OS(=O)(=O)c1ccc(C)cc1,–,"inconclusive: 56.2 µM [inhibitor, partial curve, poor fit]"
O=C(Nc1ccc2nn(-c3ccccc3)nc2c1)c1ccco1,–,"inconclusive: 35.5 µM [inhibitor, single point]"
C/C(CC(=O)Nc1ccc(N(C)C)cc1)=N\NC(=O)c1ccccn1,–,"inconclusive: 5.01 µM [inhibitor, full curve, poor fit]"
CCOC(=O)C1=C(COC(=O)c2ccc([N+](=O)[O-])s2)NC(=O)NC1C (stereo not given),–,active: 39.8 µM
COc1ccc(/C(C)=N/Nc2nc3ccccc3n3cnnc23)cc1OC,–,"inconclusive: 2.24 µM [inhibitor, partial curve, poor fit]"
CCCCN(C)C(=O)C1CCN(C/C(C)=C/c2ccccc2)CC1,–,"inconclusive: 35.5 µM [inhibitor, partial curve, poor fit]"
Cc1ccc2c(Cl)c(Cc3ccccc3)c(=S)[nH]c2n1,inactive: -8.83%,–
CCOc1cc(S(=O)(=O)NC2CCCCCC2)ccc1F,–,"inconclusive: 89.1 µM [inhibitor, partial curve, poor fit]"
CN(c1ccccc1)S(=O)(=O)c1ccc2[nH]c(=O)oc2c1,–,active: 31.6 µM
CCc1ccccc1NC(=O)CN(C)S(=O)(=O)c1ccc(-c2ccc(=O)[nH]n2)s1,–,"inconclusive: 39.8 µM [inhibitor, partial curve, poor fit]"
C[C@]12CCC[C@H](O1)c1c(cc3c(c1O)C(=O)c1c(O)cc(O)cc1C3=O)O2,–,"inconclusive: 20 µM [inhibitor, full curve, poor fit]"
O=C(N=Nc1c(O)[nH]c2ccccc12)c1cc(-c2ccc(F)cc2)n[nH]1,–,"inconclusive: 12.6 µM [inhibitor, partial curve, poor fit]"
COc1ccccc1N1CCN(C(=O)Cc2cccs2)CC1,–,"inconclusive: 28.2 µM [inhibitor, partial curve, poor fit]"
Cc1cc(NC(=O)CSCC(=O)N(c2ccc(F)cc2)C(C(=O)NC2CCCCC2)c2ccc(O)c(O)c2)no1 (stereo not given),–,"inconclusive: 28.2 µM [inhibitor, single point]"

Structure (SMILES),"activity change, negative = inhibition",Potency
Cc1cc(C)c2nc(-c3ccccn3)cc(C(=O)NCc3cc(C)n(C)n3)c2c1,inactive: -10.2%,–
COc1ccc(NC(=O)c2sc3nc4c(cc3c2N)CCCCCC4)cc1,–,"inconclusive: 89.1 µM [inhibitor, single point]"
Cc1cc(=O)n2[nH]c(-c3ccc(F)cc3)cc2n1,inactive: -1.54%,–
COc1ccc2nc(NC(=O)CCc3nc(-c4ccccc4F)no3)sc2c1,–,"inconclusive: 35.5 µM [inhibitor, partial curve, poor fit]"
O=Cc1ccc(Sc2nnc(-c3ccccc3)o2)c([N+](=O)[O-])c1,–,"inconclusive: 79.4 µM [inhibitor, partial curve]"
CC(/C=C1\SC(=S)N(NC(=O)c2cccc(O)c2)C1=O)=C\c1ccccc1,–,"inconclusive: 10 µM [inhibitor, full curve, poor fit]"
CCOc1ccccc1C(=O)Nc1c(C(=O)Nc2ccc(F)cc2)oc2ccccc12,–,"inconclusive: 79.4 µM [inhibitor, partial curve, poor fit]"
COc1ccc(Cl)cc1NC(=O)C1Cc2ccccc2CN1S(C)(=O)=O (stereo not given),–,"inconclusive: 15.8 µM [inhibitor, full curve, poor fit]"
N=C1S/C(=C\c2ccc(-c3cccc(Cl)c3)o2)C(=O)N1c1nccs1,–,active: 10 µM
COc1ccc(-c2cc(C(=O)Nc3ccc(S(=O)(=O)Nc4onc(C)c4C)cc3)c3ccccc3n2)cc1OC,–,"inconclusive: 79.4 µM [inhibitor, single point]"
Cc1ccc2cc(CN(Cc3nnnn3Cc3ccco3)CC3CCCO3)c(=O)[nH]c2c1C (stereo not given),–,"inconclusive: 31.6 µM [inhibitor, single point]"
Cc1ccc(-c2nc3ccccn3c2Nc2ccccc2C)s1,inactive: -22%,–
CCn1c(SCC(=O)Nc2ncc(C(F)(F)F)cc2Cl)nnc1-c1cccc(C)c1,–,"inconclusive: 31.6 µM [inhibitor, partial curve, poor fit]"
O=C(CCS(=O)(=O)c1ccc(Br)cc1)NC1CCCCCC1,–,active: 25.1 µM
CCOC(=O)c1cc(OC(=O)c2ccc(C)cc2)n(-c2ccccc2)n1,inactive: -9.32%,–
O=C(OCc1cc(=O)n2ccsc2n1)c1ccccc1NCCO,–,active: 22.4 µM
O=C(Nc1ccc(S(=O)(=O)Nc2ncccn2)cc1)c1ccc2ncsc2c1,–,active: 39.8 µM
Cc1cc2nc(/C(C#N)=C\c3ccc(-c4ccccc4C(=O)O)o3)[nH]c2cc1C,–,active: 25.1 µM
Cc1ccccc1NS(=O)(=O)c1ccc2[nH]cc(C(=O)N3CCCCC3)c(=O)c2c1,–,active: 44.7 µM
Cc1ccccc1OCC(=O)Nc1ccc(-c2nc3ncccc3o2)cc1,–,"inconclusive: 79.4 µM [inhibitor, partial curve, poor fit]"
Cc1cccc(-n2ccc(=O)c(C(=O)Nc3ccc(S(=O)(=O)Nc4nccs4)cc3)n2)c1,–,"inconclusive: 79.4 µM [inhibitor, partial curve]"
CN(C)S(=O)(=O)c1cc(NC(=O)COC(=O)/C=C/c2ccco2)ccc1Cl,–,active: 25.1 µM

Structure (SMILES),"activity change, negative = inhibition",Potency
O=C(COc1ccc2c3c(c(=O)oc2c1)CCC3)Nc1ccc(CCO)cc1,–,active: 50.1 µM
COc1cc(-c2nc3ccc(N4CCN(C)CC4)cc3[nH]2)cc(OC)c1OC,–,"inconclusive: 56.2 µM [inhibitor, partial curve, poor fit]"
CCN(CC)c1ccc(/C=N/OCC(=O)Nc2cccc(C)c2)cc1,–,"inconclusive: 56.2 µM [inhibitor, single point]"
O=C1/C(=C/c2ccco2)Oc2c1ccc(O)c2CN1CCCCC1,–,active: 22.4 µM
O=C1C2C3C=CC(CC3)C2C(=O)N1/N=C/c1ccc(O)c(O)c1 (stereo not given),–,active: 3.98 µM
CCCCCCOC(=O)c1ccc(N)cc1,–,"inconclusive: 79.4 µM [inhibitor, single point]"
COc1ccc(S(=O)(=O)N2CCN(Cc3cc(OC)c(OC)c(OC)c3)CC2)cc1,inactive: -3.13%,–
Cc1ccccc1OCC(=O)OCC(=O)c1cc(C)n(C2CC2)c1C,–,"inconclusive: 25.1 µM [inhibitor, full curve, poor fit]"
COc1cc(CNCc2cccc3ccccc23)cc(OC)c1,–,"inconclusive: 89.1 µM [inhibitor, partial curve, poor fit]"
CCOCCSc1nc2c(c(=O)[nH]c(=O)n2C)n1CCCc1ccccc1,inactive: 6.1%,–
C=CCNC(=O)CSc1nc2sccc2c(=O)n1-c1ccccc1,–,"inconclusive: 79.4 µM [inhibitor, single point]"
COc1cc(OC)c(N(C)S(=O)(=O)c2cccc(C(=O)OCC(=O)N(C)C3CCCCC3)c2)cc1Cl,–,"inconclusive: 0.891 µM [inhibitor, partial curve, poor fit]"
CC1CCN(C(=O)/C=C/c2ccc(C(C)(C)C)cc2)CC1,–,"inconclusive: 39.8 µM [inhibitor, partial curve, poor fit]"
O=[N+]([O-])c1ccc(OCc2cccc(COc3ccc([N+](=O)[O-])cc3)n2)cc1,–,"inconclusive: 3.98 µM [inhibitor, full curve, poor fit]"
Cc1ccc(N2CC(C(=O)N(C)CC(=O)Nc3ccc(Cl)c(C(F)(F)F)c3)CC2=O)cc1 (stereo not given),inactive: -16.9%,–
COc1cc(/C=N/n2nnnc2Nc2ccccc2)cc(OC)c1OC,–,"inconclusive: 35.5 µM [inhibitor, partial curve, poor fit]"
O=C(Cc1ccc(S(=O)(=O)N2CCCC2)s1)N1CCOCC1,–,"inconclusive: 14.1 µM [inhibitor, full curve, poor fit]"
CCOc1cccc2cc(C(=O)Oc3ccc(OC)cc3)c(=O)oc12,inactive: -11%,–
COc1ccc(-c2c3c(nc4sc5c(=O)[nH]c(C)nc5c24)CCC3)cc1,–,"inconclusive: 56.2 µM [inhibitor, partial curve, poor fit]"
COc1cccc(CNC(=O)CCNS(=O)(=O)c2ccc3[nH]c(=O)oc3c2)c1,–,"inconclusive: 56.2 µM [inhibitor, partial curve, poor fit]"
O=C(N/N=C/c1cc(Br)c(O)c(Br)c1O)c1ccc2c(c1)OCCO2,–,"inconclusive: 79.4 µM [inhibitor, partial curve]"
